Source: the supplement of paper PMC8728848
The other results are listed elsewhere or left out.

Legend:
Experiment in all cases: glycan array binding signal (z-score within array); higher = stronger binding
Settings in all cases: glycan notation: IUPAC condensed, linker removed
[1] = target: Neu5Ac(a2-3)Gal
In short: (§1)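 Glycan array binding is given as a within-array Z-score, which can be read as non-binding when negative. The arrays, 3228 of them, came from the Consortium for Functional Glycomics database and were retained only where the protein sequence was available. Z-scores were averaged across arrays of the same protein sequence at different concentrations or buffers and across linkers.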

[2] = target: Neu5Ac(a2-3)Gal(b1-3)GalNAc
In short: as §1

[3] = target: Neu5Ac(a2-3)Gal(b1-3)GalNAc(b1-3)Gal(a1-4)Gal(b1-4)Glc
In short: as §1

[4] = target: Neu5Ac(a2-3)Gal(b1-3)GalNAc(b1-4)[Neu5Ac(a2-3)]Gal(b1-4)Glc
In short: as §1

[5] = target: Neu5Ac(a2-3)Gal(b1-3)GalNAc(b1-4)[Neu5Ac(a2-8)Neu5Ac(a2-3)]Gal(b1-4)Glc
In short: as §1

[6] = target: Neu5Ac(a2-3)Gal(b1-3)GalNAc6S
In short: as §1

[7] = target: Neu5Ac(a2-3)Gal(b1-3)GlcNAc
In short: as §1

[8] = target: Neu5Ac(a2-3)Gal(b1-3)GlcNAc(b1-2)Man
In short: as §1

[9] = target: Neu5Ac(a2-3)Gal(b1-3)GlcNAc(b1-2)Man(a1-3)[GlcNAc(b1-4)][Neu5Ac(a2-3)Gal(b1-3)GlcNAc(b1-2)Man(a1-6)]Man(b1-4)GlcNAc(b1-4)GlcNAc
In short: as §1

[10] = target: Neu5Ac(a2-3)Gal(b1-3)GlcNAc(b1-2)Man(a1-3)[Neu5Ac(a2-3)Gal(b1-3)GlcNAc(b1-2)Man(a1-6)]Man(b1-4)GlcNAc(b1-4)GlcNAc
In short: as §1

[11] = target: Neu5Ac(a2-3)Gal(b1-3)GlcNAc(b1-3)Gal(b1-3)GlcNAc
In short: as §1

[12] = target: Neu5Ac(a2-3)Gal(b1-3)GlcNAc(b1-3)Gal(b1-4)GlcNAc
In short: as §1

[13] = target: Neu5Ac(a2-3)Gal(b1-3)GlcNAc(b1-3)GalNAc
In short: as §1

[14] = target: Neu5Ac(a2-3)Gal(b1-3)GlcNAc(b1-4)Gal(b1-4)Glc
In short: as §1

[15] = target: Neu5Ac(a2-3)Gal(b1-3)GlcNAc(b1-6)GalNAc
In short: as §1

[16] = target: Neu5Ac(a2-3)Gal(b1-3)GlcNAc6S
In short: as §1

[17] = target: Neu5Ac(a2-3)Gal(b1-3)[Fuc(a1-4)]GlcNAc
In short: as §1

[18] = target: Neu5Ac(a2-3)Gal(b1-3)[Fuc(a1-4)]GlcNAc(b1-3)Gal(b1-3)[Fuc(a1-4)]GlcNAc
In short: as §1

[19] = target: Neu5Ac(a2-3)Gal(b1-3)[Fuc(a1-4)]GlcNAc(b1-3)Gal(b1-4)[Fuc(a1-3)]GlcNAc
In short: as §1

[20] = target: Neu5Ac(a2-3)Gal(b1-3)[GlcNAc(b1-6)]GalNAc
In short: as §1

[21] = target: Neu5Ac(a2-3)Gal(b1-3)[Neu5Ac(a2-6)]GalNAc
In short: as §1

[22] = target: Neu5Ac(a2-3)Gal(b1-3)[Neu5Ac(a2-6)]GlcNAc(b1-3)[Fuc(a1-3)[Gal(b1-4)]GlcNAc(b1-6)]Gal(b1-4)Glc
In short: as §1

[23] = target: Neu5Ac(a2-3)Gal(b1-3)]Neu5Ac(a2-3)Gal(b1-4)]GlcNAc
In short: as §1

[24] = target: Neu5Ac(a2-3)Gal(b1-4)Glc
In short: as §1

[25] = target: Neu5Ac(a2-3)Gal(b1-4)GlcNAc
In short: as §1

[26] = target: Neu5Ac(a2-3)Gal(b1-4)GlcNAc(b1-2)Man
In short: as §1

[27] = target: Neu5Ac(a2-3)Gal(b1-4)GlcNAc(b1-2)Man(a1-3)[GlcNAc(b1-4)][Neu5Ac(a2-3)Gal(b1-4)GlcNAc(b1-2)Man(a1-6)]Man(b1-4)GlcNAc(b1-4)GlcNAc
In short: as §1

[28] = target: Neu5Ac(a2-3)Gal(b1-4)GlcNAc(b1-2)Man(a1-3)[Neu5Ac(a2-3)Gal(b1-4)GlcNAc(b1-2)Man(a1-6)]Man(b1-4)GlcNAc(b1-4)GlcNAc
In short: as §1

[29] = target: Neu5Ac(a2-3)Gal(b1-4)GlcNAc(b1-2)Man(a1-3)[Neu5Ac(a2-3)Gal(b1-4)GlcNAc(b1-2)Man(a1-6)]Man(b1-4)GlcNAc(b1-4)[Fuc(a1-6)]GlcNAc
In short: as §1

[30] = target: Neu5Ac(a2-3)Gal(b1-4)GlcNAc(b1-2)Man(a1-3)[Neu5Ac(a2-6)Gal(b1-4)GlcNAc(b1-2)Man(a1-6)]Man(b1-4)GlcNAc(b1-4)GlcNAc
In short: as §1

[31] = target: Neu5Ac(a2-3)Gal(b1-4)GlcNAc(b1-2)[Neu5Ac(a2-3)Gal(b1-4)GlcNAc(b1-4)]Man(a1-3)[GlcNAc(b1-4)][Neu5Ac(a2-3)Gal(b1-4)GlcNAc(b1-2)[Neu5Ac(a2-3)Gal(b1-4)GlcNAc(b1-6)]Man(a1-6)]Man(b1-4)GlcNAc(b1-4)GlcNAc
In short: as §1

[32] = target: Neu5Ac(a2-3)Gal(b1-4)GlcNAc(b1-2)[Neu5Ac(a2-3)Gal(b1-4)GlcNAc(b1-4)]Man(a1-3)[GlcNAc(b1-4)][Neu5Ac(a2-3)Gal(b1-4)GlcNAc(b1-4)Man(a1-6)]Man(b1-4)GlcNAc(b1-4)GlcNAc
In short: as §1

[33] = target: Neu5Ac(a2-3)Gal(b1-4)GlcNAc(b1-2)[Neu5Ac(a2-3)Gal(b1-4)GlcNAc(b1-6)]Man(a1-6)[Neu5Ac(a2-3)Gal(b1-4)GlcNAc(b1-2)Man(a1-3)]Man(b1-4)GlcNAc(b1-4)GlcNAc
In short: as §1

[34] = target: Neu5Ac(a2-3)Gal(b1-4)GlcNAc(b1-2)[Neu5Ac(a2-3)Gal(b1-4)GlcNAc(b1-6)]Man(a1-6)[Neu5Ac(a2-3)Gal(b1-4)GlcNAc(b1-2)Man(a1-3)][GlcNAc(b1-4)]Man(b1-4)GlcNAc(b1-4)GlcNAc
In short: as §1

[35] = target: Neu5Ac(a2-3)Gal(b1-4)GlcNAc(b1-3)Gal
In short: as §1

[36] = target: Neu5Ac(a2-3)Gal(b1-4)GlcNAc(b1-3)Gal(b1-3)GlcNAc
In short: as §1

[37] = target: Neu5Ac(a2-3)Gal(b1-4)GlcNAc(b1-3)Gal(b1-4)GlcNAc
In short: as §1

[38] = target: Neu5Ac(a2-3)Gal(b1-4)GlcNAc(b1-3)Gal(b1-4)GlcNAc(b1-2)Man(a1-3)[Neu5Ac(a2-3)Gal(b1-4)GlcNAc(b1-3)Gal(b1-4)GlcNAc(b1-2)Man(a1-6)]Man(b1-4)GlcNAc(b1-4)GlcNAc
In short: as §1

[39] = target: Neu5Ac(a2-3)Gal(b1-4)GlcNAc(b1-3)Gal(b1-4)GlcNAc(b1-3)Gal(b1-4)GlcNAc
In short: as §1

[40] = target: Neu5Ac(a2-3)Gal(b1-4)GlcNAc(b1-3)Gal(b1-4)GlcNAc(b1-3)Gal(b1-4)GlcNAc(b1-2)Man(a1-3)[Neu5Ac(a2-3)Gal(b1-4)GlcNAc(b1-3)Gal(b1-4)GlcNAc(b1-3)Gal(b1-4)GlcNAc(b1-2)Man(a1-6)]GalNAc
In short: as §1

[41] = target: Neu5Ac(a2-3)Gal(b1-4)GlcNAc(b1-3)Gal(b1-4)GlcNAc(b1-3)GalNAc
In short: as §1

[42] = target: Neu5Ac(a2-3)Gal(b1-4)GlcNAc(b1-3)Gal(b1-4)GlcNAc(b1-3)[Neu5Ac(a2-3)Gal(b1-4)GlcNAc(b1-3)Gal(b1-4)GlcNAc(b1-6)]GalNAc
In short: as §1

[43] = target: Neu5Ac(a2-3)Gal(b1-4)GlcNAc(b1-3)Gal(b1-4)GlcNAc(b1-6)[Gal(b1-3)]GalNAc
In short: as §1

[44] = target: Neu5Ac(a2-3)Gal(b1-4)GlcNAc(b1-3)Gal(b1-4)[Fuc(a1-3)]GlcNAc
In short: as §1

[45] = target: Neu5Ac(a2-3)Gal(b1-4)GlcNAc(b1-3)GalNAc
In short: as §1

B1: CFEM-PPm (Pichia pastoris), F2QPV1 (protein)
chain: AVATPPACLLACAAEVVKESSDCDALNNIQCICENEGSAIHACLESTCPDGLSSTALQSFEDVCE
- glycan array binding signal (z-score) [1]: -0.309
- glycan array binding signal (z-score) [2]: -0.281
- glycan array binding signal (z-score) [3]: -0.183
- glycan array binding signal (z-score) [4]: -0.217
- glycan array binding signal (z-score) [5]: -0.037
- glycan array binding signal (z-score) [6]: -0.238
- glycan array binding signal (z-score) [7]: -0.09
- glycan array binding signal (z-score) [8]: -0.257
- glycan array binding signal (z-score) [9]: -0.254
- glycan array binding signal (z-score) [10]: -0.225
- glycan array binding signal (z-score) [11]: -0.432
- glycan array binding signal (z-score) [12]: -0.256
- glycan array binding signal (z-score) [13]: -0.09
- glycan array binding signal (z-score) [14]: -0.395
- glycan array binding signal (z-score) [15]: -0.321
- glycan array binding signal (z-score) [16]: -0.363
- glycan array binding signal (z-score) [17]: -0.244
- glycan array binding signal (z-score) [18]: -0.227
- glycan array binding signal (z-score) [19]: -0.309
- glycan array binding signal (z-score) [20]: -0.262
- glycan array binding signal (z-score) [21]: -0.098
- glycan array binding signal (z-score) [22]: -0.239
- glycan array binding signal (z-score) [23]: -0.288
- glycan array binding signal (z-score) [24]: -0.127
- glycan array binding signal (z-score) [25]: -0.183
- glycan array binding signal (z-score) [26]: -0.133
- glycan array binding signal (z-score) [27]: -0.184
- glycan array binding signal (z-score) [28]: -0.218
- glycan array binding signal (z-score) [29]: -0.229
- glycan array binding signal (z-score) [30]: -0.367
- glycan array binding signal (z-score) [31]: -0.328
- glycan array binding signal (z-score) [32]: -0.234
- glycan array binding signal (z-score) [33]: -0.28
- glycan array binding signal (z-score) [34]: -0.405
- glycan array binding signal (z-score) [35]: -0.315
- glycan array binding signal (z-score) [36]: -0.197
- glycan array binding signal (z-score) [37]: -0.249
- glycan array binding signal (z-score) [38]: -0.093
- glycan array binding signal (z-score) [39]: -0.33
- glycan array binding signal (z-score) [40]: 0.587
- glycan array binding signal (z-score) [41]: -0.282
- glycan array binding signal (z-score) [42]: -0.268
- glycan array binding signal (z-score) [43]: 0.598
- glycan array binding signal (z-score) [44]: -0.228
- glycan array binding signal (z-score) [45]: -0.264
